± gives the standard deviation. This is a selection; strong and weak results do not stand in their true shares.
System: MIWI (PIWIL1) piRISC loaded with L1MC piRNA (30 nt)
Test: pre-steady-state target cleavage rate (min^-1); MIWI and MILI are mouse PIWI proteins and EfPiwi is from a freshwater sponge; tags in brackets are library labels; higher = faster piRNA-guided slicing of the target
Settings: guide: L1MC piRNA 5'p-UAACUAAAUACUAUGCAAGCUGUAGGUCCU
Method in brief: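 A transcribed, DNA-blocked target RNA library (0.1 nM) and 1 nM active affinity-purified piRISC bearing one synthetic guide were incubated in HEPES–potassium acetate buffer at 33 °C for 0–8 or 0–960 min, either with or without 500 nM GTSF1 partner protein. Uncleaved targets were sequenced, normalised to depth and to weakly complementary targets, and pooled over three trials, with k3 capped at 0.0001 min^-1. The pre-steady-state cleavage rate was derived with a burst-and-steady-state fit.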

[1] = auxiliary factor: 500 nM mouse GTSF1
[2] = auxiliary factor: none (no GTSF1)

| Sequence | pre-steady-state target cleavage rate [1] | pre-steady-state target cleavage rate [2] |
| --- | --- | --- |
| AGGACCUACAGCUUGCAUAGAUUUUAGUUA | 0.19 ± 0.022 | 0.0089 ± 0.0041 |
| UGGACCUACACCUAGCAUAGUAUUUAGUUA | 0.861 ± 0.048 | 0.0198 ± 0.0034 |
| UCCUGCUACAGCUUGCAUAGUAUUUAAGUUA | 1 ± 0.068 | 0.0232 ± 0.0057 |
| UCCUGGAACAGCUUGCAUAGUUAAUAGUUA | 0.0826 ± 0.016 | 0.00973 ± 0.0037 |
| UCCUGGUACAGCUUAGCAUAGUAUUUAGUUA | 0.873 ± 0.037 | 0.0127 ± 0.0031 |
| UGGACCAACAGCUUGCAUAGUAUUAAGUUA | 0.765 ± 0.036 | 0.0362 ± 0.0086 |
| UCCUCCUACAGCUUGGAUACUAUUUAGUUA | 0.33 ± 0.025 | 0.0211 ± 0.0043 |
| UCCUGGAUCAGCUUGCAUAGUAUUUACGUUA | 0.736 ± 0.036 | 0.032 ± 0.0083 |
| UGGACCUACAGCUUGCAAGUAUUUAGUUA | 0.305 ± 0.031 | 0.00674 ± 0.0026 |
| UCCUGCUACAGGUUGCAUAGUAUUAAGUUA | 0.628 ± 0.084 | 0.0103 ± 0.0031 |
| AGGACCUACUGCUUGCAUAGUAUUAAGUUA | 0.616 ± 0.045 | 0.0365 ± 0.0059 |
| UCCUGGUACAGCUUGCAUAGUUUAUAGUUA | 0.0594 ± 0.017 | 0.0135 ± 0.004 |
| UCCUGGAUGUGCUUGGAUAGUAUUUAGUUA | 0.392 ± 0.033 | 0.0342 ± 0.007 |
| UCCUGGAUGAGCUUGGAUAGUAUUAAGUUA | 0.199 ± 0.032 | 0.0143 ± 0.0056 |
| ACGACCUACAGCUUGCAUAGUAUUUUCAAA | 0.618 ± 0.067 | 0.00505 ± 0.004 |
| UCCUGGUACUGCUUGCAUAGAAUUUAGUUA | 0.192 ± 0.051 | 0.0089 ± 0.0047 |
| UCCUGGAUGUCCUUGCAUAGUAUUUAGUUUA | 0.107 ± 0.014 | 0.00882 ± 0.0024 |
| UCCUGGAACAGCAAGCAUAGUAUUUAGUUA | 0.942 ± 0.065 | 0.0039 ± 0.0024 |
| UCCACCUACAGCUUGCAUAGUAUUUACGUUA | 0.64 ± 0.047 | 0.0372 ± 0.0077 |
| UCGACCUUCAGCUUGCAUUGUAUUUAGUUA | 0.972 ± 0.03 | 0.0327 ± 0.0075 |
| AGGUCCUACAGCUUCCAUAGUAUUUAGUUA | 0.237 ± 0.063 | 0.0046 ± 0.0032 |
| UGGACCUACAGGUUGCAUAGUAUUUAGUUA | 1.14 ± 0.088 | 0.0575 ± 0.0096 |
| UCCUGGAUGAGCAUGCUUAGUAUUUAGUUA | 0.0871 ± 0.0071 | 0.00385 ± 0.0019 |
| UGGACCUACAGCUUGCAAAGUAUUUAGAUA | 0.569 ± 0.048 | 0.0157 ± 0.0032 |
| UCCACCUACUGCUUGCAUAGUAUUUAGUAA | 0.29 ± 0.044 | 0.0159 ± 0.0021 |

| Sequence | pre-steady-state target cleavage rate [1] | pre-steady-state target cleavage rate [2] |
| --- | --- | --- |
| UCCUGGAAGAGCUUGCAUAGUAUUUUGUUA | 0.704 ± 0.076 | 0.0231 ± 0.0062 |
| UCCUGGAUGUGCAUGCAUAGUAUUUUGUUA | 0.0233 ± 0.0055 | 0.00456 ± 0.0022 |
| UCCUGGAUCUGCUUGCAUAGUAUUUACAAA | 0.141 ± 0.025 | 0.0028 ± 0.0023 |
| UCCUGGAUGAGCAUGCAUACUAUUUAGUUA | 0.136 ± 0.019 | 0.00797 ± 0.0031 |
| AGGACCUACAGCUUGCAUAGUAUUUACGUUA | 0.844 ± 0.063 | 0.083 ± 0.015 |
| UCCUGGAACAGCUUGCAUAGUAUUCUAGUUA | 0.285 ± 0.041 | 0.0119 ± 0.0031 |
| UCGACCUACUGCUUGCAUAGUAUUUAGUUA | 1.41 ± 0.035 | 0.0694 ± 0.011 |
| UGGACCUACAUGCUUGCAUAGUAUUUAGUUA | 0.925 ± 0.054 | 0.0601 ± 0.013 |
| UCGACCUACACCUUGCAUAGUAUUUUGUUA | 0.618 ± 0.081 | 0.0282 ± 0.0042 |
| UCCUGGAUGACCUUGCAUACUAUUUAGUUA | 0.0436 ± 0.0098 | 0.0117 ± 0.003 |
| UCCUGGAUGUGCUGGCAUAGUAUUUAGUUA | 0.141 ± 0.012 | 0.0131 ± 0.0037 |
| UCCUGGAUGAGCUUGCAAUGUAUUUAGUUA | 0.0309 ± 0.0055 | 0.0041 ± 0.0026 |
| UGGACCUACAGCUUGCAUAGUAUUUUCUAA | 0.183 ± 0.029 | 0.00653 ± 0.0027 |
| UCCUGCUACAGCUUGCAUAGUUAAUAGUUA | 0.103 ± 0.022 | 0.0103 ± 0.0022 |
| AGGACCUACAGCUUGCGUAGUAUUUAGUUA | 1.24 ± 0.077 | 0.075 ± 0.013 |
| AGGAGCUACUGCUUGCAUAGUAUUUAGUUA | 1.14 ± 0.081 | 0.0634 ± 0.01 |
| UCCUGCUACAGCUUGGAUAGUAUUAAGUUA | 0.453 ± 0.051 | 0.0133 ± 0.0025 |
| UCGACGUACUGCUUGCAUAGUAUUUAGUUA | 1.13 ± 0.049 | 0.0599 ± 0.0094 |
| UCCUGGAUCAGCUUGCAAAGUAUUUAGUAA | 0.684 ± 0.047 | 0.0174 ± 0.0048 |
| UGGUCCUACAGCUUGGAUAGUAUUUAGUUA | 1.22 ± 0.038 | 0.0568 ± 0.0069 |
| UCCUGGAUCAGCUUGCAUAGUAUUAAGUAA | 0.449 ± 0.053 | 0.0105 ± 0.0037 |
| UCCUGGAUCAGCUAGCAUAGUUUUUAGUUA | 0.158 ± 0.013 | 0.0151 ± 0.0043 |
| UCCUGGUACAGCUUGCUUAGUAUUUAGAUA | 0.249 ± 0.041 | 0.00898 ± 0.002 |
| AGGACCUACAGCUUGGAUAGUAUUUACAAA | 0.175 ± 0.036 | 0.00394 ± 0.002 |
| UCCUCCUACAGGUUGCAUAGUUUUUAGUUA | 0.227 ± 0.017 | 0.0159 ± 0.003 |

— the supplement of paper PMC10338343
